Laboratory results: PubChem BioAssay AID1159614 (National Center for Advancing Translational Sciences (NCATS), 2016)
Hit rate of the full screen: of about 45,000 compounds, about 65 (0.1%) were called active. The call rests on the fitted dose curve; in most records, active means well fitted activation curve with a large enough effect; inconclusive means small, poorly fitted or top-dose-only effect; inactive means no such curve, though single readings can be large or run the other way. Some of the results follow.

target: Galactocerebrosidase (Homo sapiens) (UniProt P54803); experiment: A Novel Cell-Based Assay to Identify Small Molecules for B -Galactocerebrosidase; conditions: 145M-Twi-hGALC-G270D cells (Twitcher mouse brain line with human GALC G270D), HMU-beta-Gal fluorescence, 48 h; series mostly up to 57.5 µM; activation: at the top concentration; further: 0% is about no effect; nearly all actives have a fitted effect of over 65% in size
Outline: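 Fluorescence readout: HMU-β-gal cleavage by mutant GALC (0.1 mM final, citrate/phosphate pH 5.2 with 1 mg/mL taurocholate), stopped with carbonate/bicarbonate plus Triton X-100. Cells: murine Twitcher 145M-Twi expressing human G270D GALC; qHTS for activators.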

Chain of UniProt P54803 (P54803 whole entry, looked up): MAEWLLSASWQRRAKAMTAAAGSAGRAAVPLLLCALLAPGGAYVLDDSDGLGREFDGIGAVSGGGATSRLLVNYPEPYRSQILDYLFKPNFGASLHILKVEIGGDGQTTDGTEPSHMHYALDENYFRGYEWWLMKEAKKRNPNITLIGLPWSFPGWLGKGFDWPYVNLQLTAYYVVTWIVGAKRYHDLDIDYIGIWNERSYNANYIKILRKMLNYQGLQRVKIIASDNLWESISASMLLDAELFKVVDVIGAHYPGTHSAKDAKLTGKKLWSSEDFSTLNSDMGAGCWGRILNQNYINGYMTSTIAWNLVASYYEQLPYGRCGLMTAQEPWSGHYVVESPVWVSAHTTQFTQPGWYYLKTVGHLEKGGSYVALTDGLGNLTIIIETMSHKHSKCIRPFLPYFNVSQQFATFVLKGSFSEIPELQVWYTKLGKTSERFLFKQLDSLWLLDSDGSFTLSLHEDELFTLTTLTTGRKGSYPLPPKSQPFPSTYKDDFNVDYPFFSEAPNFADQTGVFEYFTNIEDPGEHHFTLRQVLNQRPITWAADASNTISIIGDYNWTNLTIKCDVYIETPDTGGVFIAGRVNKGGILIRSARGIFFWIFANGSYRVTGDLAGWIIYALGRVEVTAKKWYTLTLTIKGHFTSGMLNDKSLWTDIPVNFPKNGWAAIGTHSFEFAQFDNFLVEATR

Which “activation” value does the source give for `CCCCC(=O)Nc1cc(C)c(O)c(-c2nc3ncccc3o2)c1` here?
Its value is inactive: -31.3%.

Which “activation” value does the source give for `CCOC(=O)c1ccc(NC(=O)Cn2nc(SC)c(S(=O)(=O)c3ccc(Cl)cc3)c2N)cc1` here?
The value was inactive: -5.52%.

For `CC(C)CC(=O)Nc1nnc(S(=O)(=O)N2CCCCCC2)s1`, which “activation” value is on record?
The value was inactive: -17.4%.

For `Cc1cccc(C)c1NC(=O)c1ccc2c(c1)N(Cc1cccc(Cl)c1)C(=O)c1ccccc1S2=O` (stereo unspecified), which “activation” value is on record?
Its value is inactive: -2.48%.

How did the “activation” value turn out when `Cc1ccc(CCNC(=O)CCN2N=C(c3ccc(C)cc3)CCC2=O)cc1` was run?
Its value is inactive: -0.656%.

Which “activation” value does the source give for `CCOc1ccc(C(=O)Nc2cc(NC(=O)c3ccco3)ccc2OC)cc1Br` here?
Its value is inactive: -10.9%.

For `Cc1ccc(Cl)cc1Nc1nc2ccccc2c2nncn12`, which “activation” value is on record?
The value was inactive: -15.1%.

Which “activation” value does the source give for `COc1ccc(-c2nc3cc(NC(=O)Cc4ccc(Cl)cc4)ccc3o2)cc1OC` here?
The value was inactive: -23.4%.

Which “activation” value does the source give for `Cc1ccsc1CCN1C(=O)N(c2ccccc2)C(=O)C1CC(=O)Nc1ccc(F)cc1` (stereo unspecified) here?
The value was inactive: -11.8%.

How did the “activation” value turn out when `COc1ccc(CCC(=O)NCc2ccc3c(c2)CCN3C(=O)c2ccc(F)cc2)cc1` was run?
Its value is inactive: -17.6%.

How did the “activation” value turn out when `Cc1nc(C)c(-c2ccc(SCC(=O)Nc3ccc(Cl)c(Cl)c3)nn2)s1` was run?
The value was inactive: -19.5%.

Which “activation” value does the source give for `COc1ccc(OC)c(-n2nnc3c(sc4nc(C)c(Br)c(C)c43)c2=O)c1` here?
The value was inactive: -20.7%.

For `COc1ccccc1NC(=O)N1c2ccccc2Sc2ccccc21`, which “activation” value is on record?
The value was inactive: -29.6%.

For `Cc1ccc(C(=O)N(Cc2sccc2C)C2CCS(=O)(=O)C2)cc1` (stereo unspecified), which “activation” value is on record?
The value was inactive: 2.41%.

How did the “activation” value turn out when `O=C(NC1CCCC1)c1ccc2c(c1)N(Cc1ccc(C(F)(F)F)cc1)C(=O)c1ccccc1S2` was run?
Its value is inactive: -15.6%.

`Cc1ccccc1Cn1c(=O)n(Cc2ccc3c(c2)OCO3)c(=O)c2oc3ccccc3c21` was tested. Which “activation” value did it give?
Its value is inactive: 1.76%.

`NC(=O)c1ccccc1NC(=O)C1CCCN(c2ncnc3onc(-c4ccc(F)cc4)c23)C1` (stereo unspecified) was tested. Which “activation” value did it give?
The value was inactive: -8.35%.

`O=C(c1cccs1)N(Cc1cccnc1)c1nc2c(Cl)cccc2s1` was tested. Which “activation” value did it give?
The value was inactive: -1.89%.

`O=C(c1ccc(C(F)(F)F)cc1)N1CCC(c2noc(-c3ccc(S(=O)(=O)N4CCCC4)cc3)n2)CC1` was tested. Which “activation” value did it give?
Its value is inactive: -15.8%.

For `O=C(CCc1nc2cccnc2n1Cc1cccs1)Nc1cccc(C(F)(F)F)c1`, which “activation” value is on record?
The value was inactive: -18.5%.

For `Cc1ccc(NC(=O)CN2C(=O)CCc3cc(S(=O)(=O)N4CCOCC4)ccc32)cc1N(C)C`, which “activation” value is on record?
Its value is inactive: -3.89%.

How did the “activation” value turn out when `COc1ccc(Nc2c3c(nc4ccc(NC(=O)/C=C/c5cc(OC)c(OC)c(OC)c5)cc24)CCCC3)cc1OC` was run?
Its value is inactive: -14.3%.

Which “activation” value does the source give for `O=C(Nc1ccc(-c2nc3cc(NC(=O)c4ccccc4Cl)ccc3o2)cc1)c1ccccc1Cl` here?
The value was inactive: -13.1%.

`COc1ccc(-c2noc(CCC(=O)N(C)c3ccccc3C)n2)cc1` was tested. Which “activation” value did it give?
Its value is inactive: -4.7%.

How did the “activation” value turn out when `COc1ccc(N2CCN(C(=O)CSc3n[nH]c(-c4ccccc4)n3)CC2)cc1` was run?
Its value is inactive: 2.1%.

Which “activation” value does the source give for `COCCCNS(=O)(=O)c1cc(-c2onc(C)c2C)ccc1OC` here?
The value was inactive: -1.56%.

Which “activation” value does the source give for `CN(C)C(=O)c1ccc(NC(=O)Cn2nnnc2-c2ccccc2F)cc1` here?
The value was inactive: -7.1%.

For `Cc1ccccc1C(=O)N(Cc1ccc(N(C)C)cc1)Cc1ccco1`, which “activation” value is on record?
The value was inactive: -6.57%.

For `COc1ccccc1CNC(=O)Cc1c(C)c2c(cc(C)c3c(C)coc32)oc1=O`, which “activation” value is on record?
The value was inactive: -16.2%.

`CN(C)c1ccc(CN(CC2CCCO2)C(=O)COc2ccccc2Cl)cc1` (stereo unspecified) was tested. Which “activation” value did it give?
The value was inactive: -11.2%.

For `N#Cc1ccc(-c2cccs2)nc1SCc1c(F)cccc1Cl`, which “activation” value is on record?
The value was inactive: -18.9%.

How did the “activation” value turn out when `COc1ccc(N(CC(=O)NCc2ccc(F)cc2)S(=O)(=O)c2c(C)noc2C)cc1` was run?
Its value is inactive: -17.7%.

For `CCCN(c1ccc(C(C)C)cc1)S(=O)(=O)c1ccc2c(c1)CCN2C(=O)CC`, which “activation” value is on record?
The value was inactive: -5.18%.

For `COc1ccc(OC)c(-c2nc3c(C#N)c[nH]n3c2NC2CCCCC2)c1`, which “activation” value is on record?
Its value is inactive: -5.78%.

`Cc1cccc(OCC(=O)NC(Cc2c[nH]c3ccccc23)C(=O)O)c1C` (stereo unspecified) was tested. Which “activation” value did it give?
The value was inactive: -14.9%.

Which “activation” value does the source give for `COc1ccc(CCNC(=O)C(=O)NCC(c2ccc3c(c2)OCO3)N2CCOCC2)cc1` (stereo unspecified) here?
Its value is inactive: 7.24%.

With `CC1=C(C(=O)Nc2ccc(Cl)cc2)C(c2ccccc2C)n2ncc(C(=O)Nc3ccc(C)cc3)c2N1` (stereo unspecified) as the molecule, how does the “activation” value read?
The value was inactive: -8.13%.

With `CN(C)c1ccc(CNC(=O)C2CCCN(S(=O)(=O)c3ccc4c(c3)oc(=O)n4C)C2)cc1` (stereo unspecified) as the molecule, how does the “activation” value read?
Its value is inactive: -9.05%.

Which “activation” value does the source give for `CCc1nonc1NC(=O)c1oc2ccc(F)cc2c1C` here?
The value was inactive: -9.57%.

Which “activation” value does the source give for `Cc1cc(OCCOCC[N+](C)(C)Cc2ccccc2)ccc1C(C)(C)CC(C)(C)C` here?
The value was inactive: -8.37%.

With `O=C(Nc1cc(F)ccc1F)N1CCC(CN2CCOCC2)CC1` as the molecule, how does the “activation” value read?
Its value is inactive: -17.4%.

For `COc1ccc(-n2cc(-c3ccccc3)c3c(NC4CCCCC4)ncnc32)cc1`, which “activation” value is on record?
Its value is inactive: -9.9%.

`Cc1ccc(-c2nc3cc(NC(=O)c4cc5ccccc5o4)ccc3o2)cc1` was tested. Which “activation” value did it give?
Its value is inactive: -24.1%.

`CCOC(=O)C1=C(C)NC(C)=C(C(=O)OCC)C1c1ccccc1/C=C/C(=O)OC(C)(C)C` was tested. Which “activation” value did it give?
The value was inactive: -13.5%.

Which “activation” value does the source give for `COc1ccc(S(=O)(=O)NCCc2sc(C)nc2C)cc1F` here?
The value was inactive: -47.2%.

With `Cn1c(=O)n(C/C=C/c2ccccc2)c(=O)c2c1nc1n2CCN1c1ccc(F)cc1` as the molecule, how does the “activation” value read?
The value was inactive: -2.79%.

For `Cc1ccc2c(CC(=O)Nc3cccc(Cl)c3C)coc2c1`, which “activation” value is on record?
Its value is inactive: -19.4%.

With `Cc1cccc(OCCCCn2c(C3CC(=O)N(c4ccccc4Cl)C3)nc3ccccc32)c1` (stereo unspecified) as the molecule, how does the “activation” value read?
Its value is inactive: -0.126%.

With `CCOc1ccc(-n2c(SCC(=O)Nc3cccc(Cl)c3)nc3c(oc4ccccc43)c2=O)cc1` as the molecule, how does the “activation” value read?
The value was inactive: -7.11%.

`COc1ccc(C(=O)CC2(O)C(=O)Nc3c(C)cccc32)c(OC)c1OC` (stereo unspecified) was tested. Which “activation” value did it give?
Its value is inactive: -6.45%.

Which “activation” value does the source give for `CN1CCN(c2ncc3c(n2)CCN(Cc2cc(Br)cs2)C3)CC1` here?
The value was inactive: -6.73%.

`CCOc1ccc(-c2cnc(NCc3ccc(C(F)(F)F)cc3)n2C)cc1` was tested. Which “activation” value did it give?
Its value is inactive: -11.4%.

How did the “activation” value turn out when `CCN1C(=O)c2ccccc2Sc2ccc(NC(=O)COc3ccc(Cl)cc3)cc21` was run?
Its value is inactive: -17.2%.

For `CCc1ccc(NC(=O)CSc2nc3c([nH]c4ccccc43)c(=O)n2-c2ccc(C)cc2)cc1`, which “activation” value is on record?
Its value is inactive: 14.3%.

`Cc1ccc(CNC(=O)CCS(=O)(=O)c2cc3c4c(c2)CCN4C(=O)CC3)cc1` was tested. Which “activation” value did it give?
The value was inactive: 3.3%.

Which “activation” value does the source give for `O=C(Nc1ccc(Cl)cc1)c1cnn2c1NC(c1ccccc1)=CC2c1ccccc1` (stereo unspecified) here?
Its value is inactive: -12.4%.

`COc1cccc(CN(C(=O)COc2ccc(Cl)c(C)c2)C2CCS(=O)(=O)C2)c1` (stereo unspecified) was tested. Which “activation” value did it give?
The value was inactive: -12.3%.

With `O=C(NCc1ccccc1)c1ccc2c(c1)N(Cc1ccccc1F)C(=O)c1ccccc1S2=O` (stereo unspecified) as the molecule, how does the “activation” value read?
The value was inactive: -8.95%.

For `Cc1c(Cl)cccc1-n1ncc(C(=O)NCCN2CCN(C)CC2)c1C1CCN(C(=O)OC(C)(C)C)CC1`, which “activation” value is on record?
The value was inactive: 15.5%.

How did the “activation” value turn out when `O=C(Cn1c(=O)n(-c2ccccc2)c(=O)c2c3c(sc21)CCC3)c1ccc(F)cc1` was run?
Its value is inactive: -14.2%.

For `Cc1ccc(Sc2ccc(N3CCC(C(=O)Nc4cc(C)cc(C)c4)CC3)nn2)cc1`, which “activation” value is on record?
Its value is inactive: -9.78%.
